# In PubChem BioAssay AID1508642 (National Center for Advancing Translational Sciences (NCATS), 2021):
# Screen size: about 43,000 compounds; about 200 (0.47%) were called active. Another 12% or so got no clear call; they are omitted. Calls come from the whole dose curve; as a rule, active = well fitted cell-killing curve with a large enough effect; inconclusive = small, poorly fitted or top-dose-only effect, or effect the other way; inactive = flat fitted curve, though single readings scatter. The list shows a part of the results.
# Test: Cell viability qHTS assay in S16 Pmp22-F2sN cells; note: nearly all actives have a fitted effect of over 65% in size
# Settings: S16 Pmp22-F2sN Schwann cells viability, CellTiter-Glo, 24 h; series mostly up to 57.5 µM; activity change, negative = cytotoxicity: at the top concentration
# Method in brief: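 S16 Pmp22-F2sN Schwann cells (500-1,000/well) in phenol-red-free DMEM with 10% FBS received 23 nL compound by pin tool for 24 h at 37 °C. Viability was then read as CellTiter-Glo luminescence after 15 min at room temperature.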
# % is set by controls: 0 for no effect and ±100 for the full control effect.
row,Structure (SMILES),"activity change, negative = cytotoxicity"
1,Cc1ccc(C)c(NC(=O)CN2C(=O)c3cccc4cccc2c34)c1,inactive: 10.8%
2,COc1ccc(C(CC(=O)O)NC(=O)c2cc3ccccc3oc2=O)cc1OC (stereo not given),inactive: 5.89%
3,Cc1ccc(S(=O)(=O)c2cnc(SCC(=O)Nc3cccc(Cl)c3)nc2N)cc1C,inactive: 5.34%
4,O=C(Nc1cccc2cccnc12)c1ccccc1[N+](=O)[O-],inactive: -1.83%
5,Oc1ccc(Nc2nc3ccccc3n3cnnc23)cc1,inactive: -2.42%
6,CCOCCCNC(=O)CN1C(=O)COc2ccc(S(=O)(=O)N3CCCCCC3)cc21,inactive: -0.156%
7,CCCCc1cc(=O)oc2cc(C)c3c(C(C)(C)C)coc3c12,inactive: -16.4%
8,COc1ccc(C)cc1NC(=O)N1CCN(S(=O)(=O)c2ccc3c(ccn3C)c2)CC1,inactive: -3.97%
9,COc1ccc(NC(=O)c2nc(S(C)(=O)=O)ncc2N(Cc2ccc(C)cc2)Cc2ccco2)cc1Cl,inactive: 0.64%
10,COc1cccc(CNC(=O)c2cc(-c3ccc(Cl)s3)nc3ccccc23)c1,inactive: 1.29%
11,Cc1cccc(CSc2nc3c(sc4ccccc43)c(=O)n2CCC(=O)NC(C)C)c1,inactive: -9.66%
12,Cc1cccc(NC(=O)CSc2nc3ccc(NC(=O)COc4ccccc4C)cc3s2)c1,inactive: 26.1%
13,CCCNC(=O)CCC(=O)N1Cc2cccc(OC)c2Oc2ncccc21,inactive: -0.925%
14,CC1CN(C(=O)NCc2ccccc2)c2cc(Cl)ccc2O1 (stereo not given),inactive: -7.33%
15,O=C(NCc1ccc(Cl)cc1)C1CCN(c2nn3cc(-c4ccc(F)cc4)nc3s2)CC1,inactive: 3.38%
16,Cc1c(C(=O)OCCOc2ccccc2)[nH]c2c1C(=O)CC(c1ccc(C(C)(C)C)cc1)C2 (stereo not given),inactive: 0.518%
17,CCn1c2c(c(=O)n3ncc(C(=O)Nc4cc(Cl)ccc4OC)c13)CN(Cc1ccc(OC)cc1)CC2,inactive: 10.4%
18,COc1ccccc1N1CCN(C(=O)c2cc(-c3ccc(C)c(F)c3)on2)CC1,inactive: 4.83%
19,COCCCNC(=O)CN1C(=O)c2cccnc2Sc2ccccc21,inactive: 1.17%
20,O=C(Nc1cccc(C(F)(F)F)c1)Nc1nnc(N2CCCCCC2)s1,inactive: -9.99%

row,Structure (SMILES),"activity change, negative = cytotoxicity"
1,CC(=O)c1cccc(NC(=O)CN2C(=O)CCc3cc(S(=O)(=O)N4CCCCC4)ccc32)c1,inactive: -11.4%
2,CCCCN1CC(c2nc3ccccc3n2CCCCOc2cc(C)cc(C)c2)CC1=O (stereo not given),inactive: -20.4%
3,CCOc1ccc(S(=O)(=O)N2Cc3ccccc3CC2C(=O)Nc2ccc(NC(C)=O)cc2)cc1 (stereo not given),inactive: -26.3%
4,CCN(CC)CCNC(=O)C(=O)Nc1c2c(nn1-c1ccc(F)cc1)CSC2,inactive: 18.9%
5,COc1cccc2cc(C(=O)Nc3ccc(CC(=O)O)cc3)c(=O)oc12,inactive: 4.41%
6,CCc1ccc(NC(=O)CSc2nnc3[nH]c(=O)cc(-c4ccccc4)n23)cc1,inactive: -11.7%
7,CCOC(=O)c1c(C)[nH]c(CCC(=O)Nc2ccccc2C(F)(F)F)c1C,inactive: 2.21%
8,O=C(CCS(=O)(=O)c1cc2c(cc1Cl)NC(=O)CO2)NCCc1ccccc1,inactive: 17.9%
9,COc1ccc(C(=O)Nc2ccc(S(=O)(=O)Nc3cc(C)nc(C)n3)cc2)cc1,inactive: 2.01%
10,CCCS(=O)(=O)N1CC(=O)N(c2cccc(F)c2)C(C)(C(=O)NC2CCCCCC2)C1 (stereo not given),inactive: -5.44%
11,CCN(C(=O)CCc1nc(-c2ccc(C)cc2)no1)c1cccc(C(F)(F)F)c1,inactive: 1.7%
12,COc1ccc(CNC(=O)c2ccc3c(O)c(S(=O)(=O)c4ccccc4)c(=O)[nH]c3c2)cc1,inactive: -2.07%
13,Cc1cccc(N2CCN(C(=O)c3nn(C)c4c3CS(=O)(=O)c3ccccc3-4)CC2)c1C,inactive: -2.82%
14,COc1ccc(Cn2ccc3nc(C)c(C(=O)N4CCN(c5cccc(OC)c5)CC4)cc3c2=O)cc1,inactive: -14%
15,COc1ccc(NC(=O)c2c(NC(=O)C(F)(F)F)sc3c2CCCCC3)cc1,inactive: 23.9%
16,COc1cc(CNc2ccc3[nH]c(=O)[nH]c3c2)ccc1OCc1ccc(F)cc1Cl,inactive: -13.7%
17,COc1ccc(CN2CCc3c(c(=O)n4ncc(C(=O)N5CCN(c6ccccc6F)CC5)c4n3C)C2)cc1,inactive: 1.4%
18,COC(=O)c1ccc2c(=O)n3nc(Nc4ccc(F)cc4F)sc3nc2c1,inactive: 1.91%
19,CCN(CC)S(=O)(=O)c1ccc2c(c1)N(CC(=O)N1CCN(c3cccc(C)c3C)CC1)C(=O)CO2,inactive: -11.9%
20,Cc1cc(C)c(NC(=O)Cn2c(=O)n(CCC(=O)N3CCc4ccccc4C3)c(=O)c3ccccc32)c(C)c1,inactive: -1.66%

row,Structure (SMILES),"activity change, negative = cytotoxicity"
1,Clc1ccc(-n2ncc3c(NC4CCCC4)ncnc32)cc1,inactive: 12.2%
2,Cc1c(CNC2CCCCC2)c(C(=O)O)c(C)n1Cc1ccc(Cl)cc1,inactive: 3.27%
3,Cc1ccc(Cn2c3ccccc3c3cnn(CC(=O)Nc4cc(Cl)ccc4C)c(=O)c32)cc1,inactive: 8.59%
4,Cn1nnnc1SCCCNCc1ccccc1OCc1ccc(Cl)cc1,inactive: -22.8%
5,COc1ccc(Nc2ncnc3sc4c(c23)CCCC4)cc1,inactive: -5.62%
6,O=C(NCc1ccccc1Cl)c1ccc(CS(=O)(=O)c2ccc(Br)cc2)o1,inactive: 3.75%
7,COc1ccc(C)cc1NC(=O)Nc1nnc(N2CCCCC2)s1,inactive: 6.53%
8,CCOC(=O)C1CCCN(c2nc3c(S(=O)(=O)c4ccc(CC)cc4)nnn3c3ccc(Cl)cc23)C1 (stereo not given),inactive: -2.25%
9,COc1ccc(N2CCN(C(=O)c3cccn3-c3nnc(N4CCCC4)s3)CC2)cc1,inactive: 4.07%
10,O=C(CSc1n[nH]c(-c2ccccc2Cl)n1)NCCc1ccccc1,inactive: -4.47%
11,CCc1nn(CCCC(=O)NCc2ccc(OC(C)C)cc2)c(=O)c2cc3occc3n12,inactive: 14%
12,CCOc1cc(CNS(=O)(=O)c2ccc3c(c2)C(C)(C)C(=O)N3)cc(OCC)c1OCC,inactive: 11.4%
13,CN1CCN(C(=O)C(=O)Nc2c3c(nn2-c2ccc(Cl)cc2)CSC3)CC1,inactive: 2.69%
14,Cc1c(C(=O)N2CCC(C)CC2)c(S(=O)(=O)N(Cc2ccccc2)C(C)(C)C)c(C)n1C,inactive: 8.86%
15,COC(=O)c1ccc(C(=O)OC)c(NC(=O)CN(c2ccccc2)S(=O)(=O)N(C)C)c1,inactive: 0.457%
16,CCOc1ccccc1CNC(=O)C1CCCN(c2nnc(C)c3c(C)n(-c4ccccc4)nc23)C1 (stereo not given),inactive: -18.5%
17,COc1cccc(CNC(=O)CSC2=Nc3ccccc3N=C(c3ccc(F)cc3)C2)c1,inactive: 6.85%
18,Cc1nn2c(=O)cc(COC(=O)c3cccc(NC(=O)COc4ccccc4C)c3)nc2s1,inactive: 0.0649%
19,CCOCCCn1c(=N)c(C(=O)NCc2cccnc2)cc2c(=O)n3ccccc3nc21,inactive: 27.1%
20,CCN(CC)C(=O)c1ccc2c(c1)N(Cc1ccc(C(F)(F)F)cc1)C(=O)c1ccccc1S2,inactive: 25.3%
